For 172 sequences, binding signal results are on record in PMC10668032.

The list shows a part of the results. At the low end of the ranking the order means little.

For the experiment, the target named is SIX1 homeodomain (reference allele) (UniProt Q15475). Description: universal protein binding microarray. The conditions noted are these: Universal all-10-mer PBM (8x60K, AMADID 030236), 300 nM GST-tagged protein, Alexa Fluor 488 anti-GST; buffer, salt, pH and temperature not stated; high values mean tight binding; most listed sequences are background and not binding sites; double strand, one strand shown.
Consider ATGCGATG, for which the binding signal came to 0.0231 E-score. Next, CAACATTA: 0.0239 E-score.

On to AGATAGCC, for which the binding signal is 0.247 E-score. Consider GGGTATGA, for which the binding signal turned out to be 0.27 E-score. GAAACTCC: the binding signal is -0.162 E-score. Next, GCCCAACC: -0.131 E-score. As for CCTCAGCC, the figure is -0.114 E-score; as for CCACAGAA, 0.00539 E-score; as for ACTAACAG, -0.0739 E-score.

As to ACTGGAAC, the binding signal was -0.0238 E-score.

On to GAACGTAA, for which the binding signal is -0.196 E-score. Next, CTACCTAC: -0.0432 E-score; ATCTTCCA: 0.196 E-score. As for GAGTGGTA, the figure is 0.0692 E-score. As for CTGAATCA, the figure is -0.0898 E-score; as for AATGGAAG, -0.164 E-score; as for GGTACTAC, 0.00522 E-score.

Take CTCGGGGC: the binding signal was found to be 0.0208 E-score. As for CAATACTC, the figure is 0.297 E-score; as for AACACAGA, -0.03 E-score. Next, ACGCCCGT: -0.00709 E-score; ACGAACTA: -0.0513 E-score. As for ACTAGAGG, the figure is -0.141 E-score; as for CAACATTG, 0.0129 E-score. Regarding TATGAATA, the binding signal is 0.147 E-score. Take GAGAGGAA: the binding signal amounted to 0.0169 E-score. Turning to CAGGATGA, the binding signal turned out to be 0.183 E-score. As for CTTTATAA, the figure is -0.131 E-score; as for ATGGTCTA, -0.0839 E-score. As for GACGAGAA, the binding signal is -0.169 E-score.

As to AAGGAAGC, the binding signal is -0.157 E-score.

On to GCCGGAGC, for which the binding signal is -0.166 E-score. Consider ACTGTTAC, for which the binding signal is -0.0513 E-score. Next, CACAAATG: -0.217 E-score; GGTACTCA: 0.158 E-score; CCTCGGCA: -0.0386 E-score. Next, AAACTTCG: -0.254 E-score; GCAACCAA: -0.109 E-score. Next, CGATAAAC: -0.257 E-score; ACTTAACG: -0.333 E-score; GGCCCCGA: 0.0643 E-score. Consider AGAAGTCA, for which the binding signal is -0.129 E-score. Regarding CCAGCTGA, the binding signal is 0.0802 E-score.

As to GCCCCCGA, the binding signal is -0.165 E-score. Next, AAGATCGC: 0.211 E-score. As to GTCACTGA, the binding signal was -0.0175 E-score. Next, GGATTAGA: 0.165 E-score; AGACTAAT: 0.0454 E-score. Next, TCACCCAA: 0.0645 E-score. Next, ATTGGACG: -0.202 E-score. As for AGGCGCGA, the binding signal was -0.0917 E-score. As for GAATCGTC, the figure is -0.0328 E-score.

Consider CCATACGG, for which the binding signal came out at 0.134 E-score. Next, GTGCGGGA: 0.0768 E-score. As for GGACGTAA, the figure is -0.37 E-score; as for CTTCCCAA, -0.133 E-score; as for AGTAGGGG, 0.196 E-score. Turning to AAGGTGAA, the binding signal is -0.181 E-score.

With GGTTTCGA, the binding signal came to 0.172 E-score.

Consider CCGGTGCG, for which the binding signal is -0.063 E-score.

For the sequence ATAGCGAC, the binding signal was 0.0808 E-score.

In the case of ACGTCGTC, the binding signal is -0.132 E-score. On to GACTTTAC, for which the binding signal was -0.2 E-score. Next, AGAAGCCG: -0.021 E-score; GAAATCGA: -0.171 E-score. In the case of ACAGATAG, the binding signal came out at 0.208 E-score. With ATTTACAC, the binding signal worked out at 0.0364 E-score. As for AAACTAGT, the figure is -0.0695 E-score; as for ATGGGACC, -0.102 E-score. As for CTCATCGC, the figure is 0.0165 E-score; as for AGAAGTAC, 0.0496 E-score; as for ATTTTGGA, -0.131 E-score.

Turning to ATTGGTTC, the binding signal is -0.201 E-score. Next, AAGAGTAT: 0.277 E-score; ATACCGGC: 0.319 E-score.

For the sequence AACATTGA, the binding signal was -0.141 E-score.

As for GGAACGAA, the binding signal was -0.237 E-score. For ATGATTAC, the binding signal was -0.00046 E-score. Next, CGGGCCCA: -0.155 E-score; AACCATAC: 0.0509 E-score. As for CGACCACA, the figure is 0.00725 E-score.

Take AAATGCAG: the binding signal was -0.162 E-score. Next, CCCGACAA: -0.113 E-score; AAATCACG: -0.277 E-score; CACACCTA: 0.125 E-score. Next, ACACTACA: 0.0847 E-score. Next, TCATAAGA: 0.0505 E-score; CCAAAACC: 0.0885 E-score.

Turning to ACGATGGC, the binding signal is -0.12 E-score.

Turning to AATAGATT, the binding signal is -0.0337 E-score. With AATACAGG, the binding signal is 0.12 E-score. As for AGGATTTA, the figure is -0.0644 E-score; as for ACGCCAAG, -0.153 E-score; as for GTACGGAA, -0.173 E-score. Next, AGTGGTTC: -0.0795 E-score. Take AACCACGG: the binding signal was -0.146 E-score. As for CGATTATA, the figure is 0.211 E-score. Consider AGCTGCTC, for which the binding signal is -0.124 E-score. As for AGTTCGAA, the figure is -0.0995 E-score. As for CGTGCGCA, the figure is -0.206 E-score; as for GGAAACGA, -0.111 E-score; as for AATTTTCG, -0.32 E-score.

In the case of ATAAGGTG, the binding signal was 0.113 E-score. As for CTAGGCTA, the figure is -0.144 E-score. As for AGGTCGAA, the figure is -0.0608 E-score; as for GGTATGCA, 0.0612 E-score. As for GCGACCTA, the figure is -0.00545 E-score; as for CGAGTTCA, -0.129 E-score; as for AATGGATA, 0.354 E-score. Turning to GCCTTGGA, the binding signal is -0.0531 E-score. Next, CACGTCTA: 0.00163 E-score; AGGCAATC: 0.063 E-score; ATAGATTG: 0.166 E-score. Regarding ACGATAAC, the binding signal was 0.11 E-score. For the sequence CGACTAAC, the binding signal was -0.217 E-score. For the sequence CGGCTGCA, the binding signal turned out to be 0.00566 E-score.

In the case of AGCAGCCC, the binding signal is -0.123 E-score.

As for AAGGTATG, the binding signal worked out at 0.201 E-score. As for CCCAGGAA, the figure is 0.0245 E-score; as for ATCTGCGC, 0.162 E-score; as for CTCTCTCC, 0.0089 E-score.

For ATCGAGTG, the binding signal came to 0.0789 E-score.

For the sequence CAGTTAGC, the binding signal was -0.146 E-score. Next, AAGCTAGT: -0.139 E-score; TACATTCA: -0.206 E-score; CAGGTCAG: 0.05 E-score. Consider ACCCCGCA, for which the binding signal stood at 0.139 E-score.

Take AGACTGCA: the binding signal is -0.242 E-score. As for GCGCGATA, the figure is 0.379 E-score; as for AGATCACG, 0.306 E-score; as for ACGGGTAG, 0.0448 E-score. Next, GACACTAC: 0.132 E-score.

For AACCATGT, the binding signal is -0.0387 E-score.

Turning to CCTAGACA, the binding signal was -0.206 E-score. Next, ATTGTTGA: 0.0805 E-score; CCGATTCC: -0.0668 E-score; AGGGATAG: 0.27 E-score. Next, AGCCTTGC: -0.117 E-score; CTCAGAAG: -0.138 E-score. As for GTAGTTAA, the figure is 0.0163 E-score.

Take CCTCAGCA: the binding signal was -0.0194 E-score.

Turning to GCCCTACC, the binding signal is -0.0381 E-score. As for ACACATAT, the figure is 0.272 E-score. Next, CATTGCCG: -0.228 E-score. As for AGCTCTCA, the figure is -0.0702 E-score; as for CAGTGGTA, 0.101 E-score. In the case of ACGCCCAT, the binding signal worked out at 0.0376 E-score. Next, GATGGTGA: 0.00239 E-score. For GGGGAGAA, the binding signal was -0.0164 E-score.

AGGAGATA: the binding signal was 0.331 E-score.

With CCCGAAGC, the binding signal came to 0.0864 E-score.

Turning to CAGCGCAG, the binding signal was -0.14 E-score. As for CTCAGGCC, the figure is -0.173 E-score. As for ATCATGTG, the figure is 0.328 E-score; as for GTCATCCA, 0.0713 E-score. Next, GGCTTCAA: -0.162 E-score; TACTCCCA: 0.162 E-score. Consider CCCATGAA, for which the binding signal was 0.0356 E-score. Consider AATCGGTG, for which the binding signal was found to be 0.129 E-score. As for CGCCCCCA, the figure is -0.153 E-score; as for ATTCATAG, -0.0252 E-score; as for AGGCCGGG, -0.112 E-score.

Consider CGAACTAA, for which the binding signal was -0.145 E-score.

As for CCCCCGGA, the binding signal turned out to be 0.228 E-score.

Regarding AAGTCAGT, the binding signal is -0.131 E-score.

In the case of AACACACA, the binding signal is -0.0559 E-score. On to AGCTCGTC, for which the binding signal is -0.222 E-score.

As for GATTATGC, the binding signal was 0.265 E-score. In the case of ACCAACAG, the binding signal was found to be 0.0249 E-score.

With CTTCGGAA, the binding signal is -0.187 E-score. Next, CCCTAGCA: 0.0254 E-score; AACGTGTA: -0.129 E-score.
